# Data from the supplement of paper PMC8728848.
# The list shows a part of the results.
# How the values were obtained:
# Assay in all cases: glycan array binding signal (z-score within array); higher = stronger binding
# Conditions in all cases: glycan notation: IUPAC condensed, linker removed
# [1] = target: Neu5Ac(a2-8)Neu5Ac(a2-6)Glc
# Summary of the method: (§1)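 Glycan array binding is given as a within-array Z-score, which can be read as non-binding when negative. The arrays, 3228 of them, came from the Consortium for Functional Glycomics database and were retained only where the protein sequence was available. Z-scores were averaged across arrays of the same protein sequence at different concentrations or buffers and across linkers.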
# [2] = target: Neu5Ac(a2-8)Neu5Ac(a2-8)Neu5Ac
# Summary of the method: as §1
# [3] = target: Neu5Ac(a2-8)Neu5Ac(a2-8)Neu5Ac(a2-3)Gal(b1-4)Glc
# Summary of the method: as §1
# [4] = target: Neu5Ac(a2-8)Neu5Ac(a2-8)Neu5Ac(a2-3)[Gal(b1-3)GalNAc(b1-4)]Gal(b1-4)Glc
# Summary of the method: as §1
# [5] = target: Neu5Ac(a2-8)Neu5Ac(a2-8)Neu5Ac(a2-3)[GalNAc(b1-4)]Gal(b1-4)Glc
# Summary of the method: as §1
# [6] = target: Neu5Ac(a2-8)Neu5Ac(a2-8)Neu5Ac(a2-6)Gal
# Summary of the method: as §1
# [7] = target: Neu5Ac(a2-8)Neu5Ac(a2-8)Neu5Ac(a2-8)Neu5Ac
# Summary of the method: as §1
# [8] = target: Neu5Ac(a2-8)Neu5Ac(a2-8)Neu5Ac(a2-8)Neu5Ac(a2-3)[GalNAc(b1-4)]Gal(b1-4)Glc
# Summary of the method: as §1
# [9] = target: Neu5Ac(a2-8)Neu5Ac(a2-8)Neu5Ac(a2-8)Neu5Ac(a2-8)Neu5Ac
# Summary of the method: as §1
# [10] = target: Neu5Ac(a2-8)Neu5Ac(a2-8)Neu5Ac(a2-8)Neu5Ac(a2-8)Neu5Ac(a2-8)Neu5Ac
# Summary of the method: as §1
# [11] = target: Neu5Ac(a2-8)Neu5Ac(a2-8)Neu5Ac(a2-8)Neu5Ac(a2-8)Neu5Ac(a2-8)Neu5Ac(a2-8)Neu5Ac
# Summary of the method: as §1
# [12] = target: Neu5Ac(a2-8)Neu5Ac(a2-8)Neu5Ac(a2-8)Neu5Ac(a2-8)Neu5Ac(a2-8)Neu5Ac(a2-8)Neu5Ac(a2-8)Neu5Ac
# Summary of the method: as §1
# [13] = target: Neu5Ac(a2-8)Neu5Ac(a2-8)Neu5Ac(a2-8)Neu5Ac(a2-8)Neu5Ac(a2-8)Neu5Ac(a2-8)Neu5Ac(a2-8)Neu5Ac(a2-8)Neu5Ac
# Summary of the method: as §1
# [14] = target: Neu5Ac(a2-8)Neu5Ac(a2-8)Neu5Ac(a2-8)Neu5Ac(a2-8)Neu5Ac(a2-8)Neu5Ac(a2-8)Neu5Ac(a2-8)Neu5Ac(a2-8)Neu5Ac(a2-8)Neu5Ac
# Summary of the method: as §1
# [15] = target: Neu5Ac(a2-8)Neu5Gc(a2-3)Gal(b1-4)GlcNAc
# Summary of the method: as §1
# [16] = target: Neu5Ac(a2-9)Neu5Ac(a2-3)Gal(b1-4)Glc
# Summary of the method: as §1
# [17] = target: Neu5Ac(b1-6)GalNAc
# Summary of the method: as §1
# [18] = target: Neu5Ac(b2-3)Gal(b1-4)Glc
# Summary of the method: as §1
# [19] = target: Neu5Ac(b2-6)Gal(b1-4)Glc
# Summary of the method: as §1
# [20] = target: Neu5Ac(b2-6)Gal(b1-4)GlcNAc
# Summary of the method: as §1
# [21] = target: Neu5Ac(b2-6)GalNAc
# Summary of the method: as §1
# [22] = target: Neu5Ac9Ac(a2-3)Gal(b1-3)GlcNAc
# Summary of the method: as §1
# [23] = target: Neu5Ac9Ac(a2-3)Gal(b1-3)[Fuc(a1-4)]GlcNAc
# Summary of the method: as §1
# [24] = target: Neu5Ac9Ac(a2-3)Gal(b1-4)GlcNAc
# Summary of the method: as §1
# [25] = target: Neu5Ac9Ac(a2-3)Gal(b1-4)[Fuc(a1-3)]GlcNAc
# Summary of the method: as §1
# [26] = target: Neu5Ac9Ac(a2-3)Gal(b1-4)[Fuc(a1-3)]GlcNAc(b1-3)Gal
# Summary of the method: as §1
# [27] = target: Neu5Ac9Ac(a2-6)Gal(b1-4)GlcNAc
# Summary of the method: as §1
# [28] = target: Neu5Ac9Me(a2-3)Gal(b1-4)Glc
# Summary of the method: as §1
# [29] = target: Neu5Gc(a2-3)Gal(b1-3)GlcNAc
# Summary of the method: as §1
# [30] = target: Neu5Gc(a2-3)Gal(b1-3)GlcNAc(b1-3)Gal(b1-4)Glc
# Summary of the method: as §1
# [31] = target: Neu5Gc(a2-3)Gal(b1-3)[Fuc(a1-4)]GlcNAc
# Summary of the method: as §1
# [32] = target: Neu5Gc(a2-3)Gal(b1-4)Glc
# Summary of the method: as §1
# [33] = target: Neu5Gc(a2-3)Gal(b1-4)GlcNAc
# Summary of the method: as §1
# [34] = target: Neu5Gc(a2-3)Gal(b1-4)GlcNAc(b1-3)Gal(b1-4)GlcNAc(b1-2)Man(a1-3)[Neu5Gc(a2-3)Gal(b1-4)GlcNAc(b1-3)Gal(b1-4)GlcNAc(b1-2)Man(a1-6)]Man(b1-4)GlcNAc(b1-4)GlcNAc
# Summary of the method: as §1
# [35] = target: Neu5Gc(a2-3)Gal(b1-4)[Fuc(a1-3)]GlcNAc
# Summary of the method: as §1
# [36] = target: Neu5Gc(a2-3)Gal(b1-4)[Fuc(a1-3)]GlcNAc(b1-3)Gal
# Summary of the method: as §1
# [37] = target: Neu5Gc(a2-6)Gal(b1-3)GlcNAc(b1-3)Gal(b1-4)Glc
# Summary of the method: as §1
# [38] = target: Neu5Gc(a2-6)Gal(b1-4)GlcNAc
# Summary of the method: as §1
# [39] = target: Neu5Gc(a2-6)Gal(b1-4)GlcNAc(b1-2)Man(a1-3)[Neu5Gc(a2-6)Gal(b1-4)GlcNAc(b1-2)Man(a1-6)]Man(b1-4)GlcNAc(b1-4)GlcNAc
# Summary of the method: as §1
# [40] = target: Neu5Gc(a2-6)GalNAc
# Summary of the method: as §1
# [41] = target: Neu5Gc(a2-8)Neu5Ac(a2-3)Gal(b1-4)GlcNAc
# Summary of the method: as §1
# [42] = target: Neu5Gc(a2-8)Neu5Gc(a2-3)Gal(b1-4)GlcNAc
# Summary of the method: as §1
# [43] = target: Neu5Gc(a2-8)Neu5Gc(a2-3)Gal(b1-4)GlcNAc(b1-3)Gal(b1-4)GlcNAc
# Summary of the method: as §1
# [44] = target: Neu5Gc(a2-8)Neu5Gc(a2-6)Gal(b1-4)GlcNAc
# Summary of the method: as §1
# [45] = target: Neu5Gc(b2-6)Gal(b1-4)GlcNAc
# Summary of the method: as §1
binder,measurement,setting,value
"CLEC5A (Homo sapiens), Q9NY25 (protein) MNWHMIISGLIVVVLKVVGMTLFLLYFPQIFNKSNDGFTTTRSYGTVSQIFGSSSPSPNGFITTRSYGTVCPKDWEFYQARCFFLSTSESSWNESRDFCKGKGSTLAIVNTPEKLKFLQDITDAEKYFIGLIYHREEKRWRWINNSVFNGNVTNQNQNFNCATIGLTKTFDAASCDISYRRICEKNAK",glycan array binding signal (z-score),[1],-0.32
same,glycan array binding signal (z-score),[2],-0.255
same,glycan array binding signal (z-score),[3],-0.262
same,glycan array binding signal (z-score),[4],-0.191
same,glycan array binding signal (z-score),[5],0.038
same,glycan array binding signal (z-score),[6],-0.127
same,glycan array binding signal (z-score),[7],-0.32
same,glycan array binding signal (z-score),[8],0.404
same,glycan array binding signal (z-score),[9],-0.32
same,glycan array binding signal (z-score),[10],-0.32
same,glycan array binding signal (z-score),[11],-0.32
same,glycan array binding signal (z-score),[12],-0.32
same,glycan array binding signal (z-score),[13],-0.32
same,glycan array binding signal (z-score),[14],-0.32
same,glycan array binding signal (z-score),[15],-0.242
same,glycan array binding signal (z-score),[16],-0.32
same,glycan array binding signal (z-score),[17],-0.523
same,glycan array binding signal (z-score),[18],-0.32
same,glycan array binding signal (z-score),[19],-0.32
same,glycan array binding signal (z-score),[20],-0.302
same,glycan array binding signal (z-score),[21],-0.184
same,glycan array binding signal (z-score),[22],-0.191
same,glycan array binding signal (z-score),[23],-0.32
same,glycan array binding signal (z-score),[24],-0.046
same,glycan array binding signal (z-score),[25],-0.32
same,glycan array binding signal (z-score),[26],-0.32
same,glycan array binding signal (z-score),[27],-0.229
same,glycan array binding signal (z-score),[28],-0.32
same,glycan array binding signal (z-score),[29],-0.114
same,glycan array binding signal (z-score),[30],-0.32
same,glycan array binding signal (z-score),[31],-0.194
same,glycan array binding signal (z-score),[32],-0.394
same,glycan array binding signal (z-score),[33],0.007
same,glycan array binding signal (z-score),[34],-0.052
same,glycan array binding signal (z-score),[35],0.039
same,glycan array binding signal (z-score),[36],-0.32
same,glycan array binding signal (z-score),[37],0.066
same,glycan array binding signal (z-score),[38],0.082
same,glycan array binding signal (z-score),[39],-0.32
same,glycan array binding signal (z-score),[40],-0.284
same,glycan array binding signal (z-score),[41],-0.121
same,glycan array binding signal (z-score),[42],-0.259
same,glycan array binding signal (z-score),[43],-0.123
same,glycan array binding signal (z-score),[44],-0.112
same,glycan array binding signal (z-score),[45],0.916
